Source: paper PMC9911399, “Two distinct binding modes provide the RNA-binding protein RbFox with extraordinary sequence specificity”
Residue numbers refer to the chain shown, from its start. The list shows a part of the results.

T1: RBFOX1 RRM RbFoxmut (Fox-RRM*) (Homo sapiens, UniProt Q9NWB1 109-208, R118D;E147R;N151S;E152T)
T1 sequence: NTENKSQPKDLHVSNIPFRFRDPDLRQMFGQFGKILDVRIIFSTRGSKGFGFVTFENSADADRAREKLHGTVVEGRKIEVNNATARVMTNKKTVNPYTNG

B1: CUGUGGA (DNA:RNA)
RNA: GGGAGACCGGAAUUCAGAUUGUCCCUGUGGAUUAAAUCCCGUCGUAGCCACCA
DNA 1: CAATCTGAATTCCGGTCTCCC
DNA 2: TGGTGGCTACGACGGGATT
B2: UUUAUGA (DNA:RNA)
RNA: B1 RNA with C25U, G27U, U28A, G29U
DNA 1: CAATCTGAATTCCGGTCTCCC
DNA 2: TGGTGGCTACGACGGGATT
B3: AUCUAGC (DNA:RNA)
RNA: B1 RNA with C25A, G27C, G29A, A31C
DNA 1: CAATCTGAATTCCGGTCTCCC
DNA 2: TGGTGGCTACGACGGGATT
B4: AAGAAGC (DNA:RNA)
RNA: B1 RNA with C25A, U26A, U28A, G29A, A31C
DNA 1: CAATCTGAATTCCGGTCTCCC
DNA 2: TGGTGGCTACGACGGGATT
B5: ACUAAAA (DNA:RNA)
RNA: B1 RNA with C25A, U26C, G27U, U28A, G29A, G30A
DNA 1: CAATCTGAATTCCGGTCTCCC
DNA 2: TGGTGGCTACGACGGGATT
B6: GCGGAGC (DNA:RNA)
RNA: B1 RNA with C25G, U26C, U28G, G29A, A31C
DNA 1: CAATCTGAATTCCGGTCTCCC
DNA 2: TGGTGGCTACGACGGGATT
B7: AUCGGUA (DNA:RNA)
RNA: B1 RNA with C25A, G27C, U28G, G30U
DNA 1: CAATCTGAATTCCGGTCTCCC
DNA 2: TGGTGGCTACGACGGGATT
B8: UCAUUAC (DNA:RNA)
RNA: B1 RNA with C25U, U26C, G27A, G29U, G30A, A31C
DNA 1: CAATCTGAATTCCGGTCTCCC
DNA 2: TGGTGGCTACGACGGGATT
B9: CACCGAC (DNA:RNA)
RNA: B1 RNA with U26A, G27C, U28C, G30A, A31C
DNA 1: CAATCTGAATTCCGGTCTCCC
DNA 2: TGGTGGCTACGACGGGATT
B10: UAGGACA (DNA:RNA)
RNA: B1 RNA with C25U, U26A, U28G, G29A, G30C
DNA 1: CAATCTGAATTCCGGTCTCCC
DNA 2: TGGTGGCTACGACGGGATT
B11: UAUAUAG (DNA:RNA)
RNA: GGGAGACCGGAAUUCAGAUUGUCCUAUAUAGUUAAAUCCCGUCGUAGCCACCA
DNA 1: CAATCTGAATTCCGGTCTCCC
DNA 2: TGGTGGCTACGACGGGATT
B12: AGUAGUG (DNA:RNA)
RNA: B11 RNA with U25A, A26G, U29G, A30U
DNA 1: CAATCTGAATTCCGGTCTCCC
DNA 2: TGGTGGCTACGACGGGATT
B13: GAAUUGG (DNA:RNA)
RNA: B11 RNA with U25G, U27A, A28U, A30G
DNA 1: CAATCTGAATTCCGGTCTCCC
DNA 2: TGGTGGCTACGACGGGATT
B14: CUUGAAG (DNA:RNA)
RNA: B11 RNA with U25C, A26U, A28G, U29A
DNA 1: CAATCTGAATTCCGGTCTCCC
DNA 2: TGGTGGCTACGACGGGATT
B15: UUUGAUC (DNA:RNA)
RNA: B11 RNA with A26U, A28G, U29A, A30U, G31C
DNA 1: CAATCTGAATTCCGGTCTCCC
DNA 2: TGGTGGCTACGACGGGATT
B16: CUAUAGA (DNA:RNA)
RNA: B1 RNA with G27A, G29A
DNA 1: CAATCTGAATTCCGGTCTCCC
DNA 2: TGGTGGCTACGACGGGATT
B17: CAACGCA (DNA:RNA)
RNA: B1 RNA with U26A, G27A, U28C, G30C
DNA 1: CAATCTGAATTCCGGTCTCCC
DNA 2: TGGTGGCTACGACGGGATT
B18: AAGACGU (DNA:RNA)
RNA: B1 RNA with C25A, U26A, U28A, G29C, A31U
DNA 1: CAATCTGAATTCCGGTCTCCC
DNA 2: TGGTGGCTACGACGGGATT
B19: UUCAACA (DNA:RNA)
RNA: B1 RNA with C25U, G27C, U28A, G29A, G30C
DNA 1: CAATCTGAATTCCGGTCTCCC
DNA 2: TGGTGGCTACGACGGGATT
B20: AGGUAUA (DNA:RNA)
RNA: B1 RNA with C25A, U26G, G29A, G30U
DNA 1: CAATCTGAATTCCGGTCTCCC
DNA 2: TGGTGGCTACGACGGGATT

Target: T1, RBFOX1 RRM RbFoxmut (Fox-RRM*)
Assay: EMSA; HiTS-Eq, 1 nM pool, 10 min; buffer printed only for the single-RNA assays: 10 mM Tris pH 7.5, 150 mM NaCl, 3.4 mM EDTA, 0.001% NP-40, 30 C
Settings: tags: His6 N-terminal (pET28a); label: 5' 32P
In short: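 Purified RbFox RRM (wild type or mutant) was equilibrated for 10 min in 50 µL with 1 nM of a 5′-radiolabelled pool of RNA with 7 randomized nucleotides, its flanks annealed to DNA oligonucleotides, across increasing protein concentrations. Free RNA was separated by 8% native PAGE, excised, reverse-transcribed, PCR-barcoded and sequenced on an Illumina HiSeq 2500. Relative association constants came from read-count changes of each variant against the control reaction, normalised to the cognate motif.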

Binder | binding signal
B1 | 0.0904 KA relative to UGCAUGU
B2 | 0.104 KA relative to UGCAUGU
B3 | 0.146 KA relative to UGCAUGU
B4 | 0.0834 KA relative to UGCAUGU
B5 | 0.139 KA relative to UGCAUGU
B6 | 0.094 KA relative to UGCAUGU
B7 | 0.157 KA relative to UGCAUGU
B8 | 0.104 KA relative to UGCAUGU
B9 | 0.0833 KA relative to UGCAUGU
B10 | 0.0582 KA relative to UGCAUGU
B11 | 0.0914 KA relative to UGCAUGU
B12 | 0.2 KA relative to UGCAUGU
B13 | 0.087 KA relative to UGCAUGU
B14 | 0.093 KA relative to UGCAUGU
B15 | 0.0552 KA relative to UGCAUGU
B16 | 0.0985 KA relative to UGCAUGU
B17 | 0.161 KA relative to UGCAUGU
B18 | 0.0655 KA relative to UGCAUGU
B19 | 0.0825 KA relative to UGCAUGU
B20 | 0.148 KA relative to UGCAUGU
